We go through 19 variants from the RNAGym collection of RNA variant scans (doi:10.1073/pnas.2313332121).

Variants at the background level are over-represented here.

B1: TPR 5TU (parent)
chain: GGAUCUUCUCGAUCUAACAAAAAAGACAAAUCUGCCACAAAGCUUGAGAGCAUCUUCGGAUGCAGAGGCGGCAGCCUUCGGUGGCGCGAUAGCGCCAACGUUCUCAACUAUGACACGCAAAACGCGUGCUCCGUUGAAUGGAGUUUAUCAUG

The data set covers variants of B1. Put plainly: polymerase ribozyme fitness, log enrichment relative to wild type (log ratio); higher = more active; in vitro selection for triplet polymerase activity. The method, boiled down:
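For each subunit of a heterodimeric triplet polymerase ribozyme, a mutant library was built by PCR and transcribed, then taken through a single in vitro selection round in triplicate. Selection involved annealing to a biotinylated primer, the partner subunit and triplets, incubation frozen at −7 °C, gel excision of extended constructs, capture on streptavidin beads and RT-PCR. Genotypes were retained after Illumina sequencing of inputs and outputs only with ≥10 input reads and ≥1 read in each output. Fitness is defined as the logarithm of a genotype's enrichment relative to wild-type enrichment, using inverse-variance-weighted averages across replicates, with the logarithm taken to base 2.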
As for GGAUCUUCUCGAUCUAACAAAAAAGACAAAUCUGCCACAAAGCGUGAGAGCAUCUUCGGAAGCAGAGGCGGCAGCCUUCGGUGGCGCGAUAGCGCCAACGUUCUCAACUAUGACACGCAAAACGCGUGCUCCGUUGAAUGCAGUUUAUCAUG [U44G U61A G141C], the “polymerase ribozyme fitness (log ratio)” value was at most -4.2.

With GGAUCUUCUCGAUCUAACAAAAAAGACAAAUCUGCCACAAAGCUAGAGGGCAUCUUCGGAUGCAGAGGCGGCAGCCUUCGGUAGUGCGAUAGCGCCAAGGUUCCCAACUAUGACACGCAAAACGCGUGCUCCGUUGAAUGGAGUUUAUCAUG [U45A A49G G83A C85U C99G U104C], the “polymerase ribozyme fitness (log ratio)” value is at most -4.2.

GGAUCUUCUCGAUCUAACAAAAAAGACAAAUCUGCCACAAAGCUAGAGAGCGUCUGGGGAUGCAGAGGCGGCAGCCUUCGGUGGCGCGAUAGCCCCAACGUGCUCAACUAUGACACGCAAAACGCGUGCUCCGUUGAAUGGAGUUUAUCAUG [U45A A52G U56G C57G G94C U102G]: the “polymerase ribozyme fitness (log ratio)” value is at most -4.2.

As for GGAUCUUCUCGAUCUAACAAAAAAGACAAAUCUGCCACAAAGCGUGAGAGCAUCUUCGGAUGCAGAGGCGGCAGCCUUCGGUGGCGCGAUAGCGCCAACGUUCUCAACUAUGACACGCAAAACGCGUGCUCCGUUGAAAGGAGUUUAUCAUG [U44G U139A], the “polymerase ribozyme fitness (log ratio)” value is at most -4.2.

GGAUCUUCUCGAUCUAACAAAAAAGACAAAUCUGCCACAAAGCUAGAGAGCAUCUUCGGAUGCAGAGGCGGCAGCCUUCGGUGGCGCGAUAGAGCCAACGUUCUCAACUAUGACACGCAAAACGCGUGCUCCGUUGAAUGAAGUUUAUCAUG [U45A C93A G141A]: the “polymerase ribozyme fitness (log ratio)” value was -4.05.

Turning to GGAUCUUCUCGAUCUAACAAAAAAGACAAAUCUGCCACAAAGCUAGAGAGCGUCUUCGGAUGCAGAGGCGGCAGCCUUCGGUGGCGCGAUAGCGCCAACGUUCUCAACUAUGACACGAAAAACGCGUGCUCCGUUGAAUGGAGUUUAUCAUG [U45A A52G C118A], the “polymerase ribozyme fitness (log ratio)” value is -4.18.

In the case of GGAUCUUCUCGAUCUAACAAAAAAGACAAAUCUGCCACAAAGCUAGAGAGCAUCUUCGGAUGCAGAGGCGGCAGCCUUCGGUGGCGCGAUAGCGCCAACGUUGUCAACUAUGACACGCAAAACGCGUGCUCCGUUGAAUGGAGUUUAUCAUG [U45A C103G], the “polymerase ribozyme fitness (log ratio)” value is at most -4.2.

In the case of GGAUCUUCUCGAUCUAACAAAAAAGACAAAUCUGCCACAAAGCGUGAGAGCAUCUUCGGAAGCAGAGGUGGCAGCCUUCGGUGGCGCGAUAGCGCCAACGUGCUCAACUAUGACAGGCAACACGCGUGCUCCGUUGAAUGGAGUUUAUCAUG [U44G U61A C69U U102G C116G A121C], the “polymerase ribozyme fitness (log ratio)” value was at most -4.2.

Consider GGAUCUUCUCGAUCUAACAAAAAAGACAAAUCUGCCACAAAGCGUGAGAGCAUCUACGGAUGCAGAGGCGGCAGCCUUCGGUGUCGCGAUAGCGCCAACGUUCUCAACUAUGACACGCAAAACGCGUGAUCCGUUGAAUGGAGUUUAUCAUG [U44G U56A G84U C129A], for which the “polymerase ribozyme fitness (log ratio)” value was at most -4.2.

As for GGAUCUUCUCGAUCUAACAAAAAAGACAAAUCUGCCACAAAGCUAGAGAGCAUCUUCGGUUGCAGAGGCGGCAGCCGUUGGUGGCGCGAUAGCGCCAAGGUUCUCAACUAUGACACGCAAAACGCGUGCUCCGUUGAAUGGAGUUUAGCAUG [U45A A60U U77G C79U C99G U148G], the “polymerase ribozyme fitness (log ratio)” value was at most -4.2.

With GGAUCUUCUCGAUCUAACAAAAAAGACAAAUCUGCCACAAAGCUAGAGAGCAUCUUCGGAUGCAGAGGCGGCAGCCUUCGGUGGCGCGAUAGCGCCAACGUUCUCAUCUAUGACACGCAGAACGCGUGCUCCGUUGAAUGGAGUUUAUCAUG [U45A A107U A120G], the “polymerase ribozyme fitness (log ratio)” value was at most -4.2.

Regarding GGAUCUUCUCGAUCUAACAAAAAAGACAAAUCUGCCACAAAGCUAGAGAGCAUCUUCGGAUGCAGAGGCGGCCGCCUUCGGUGGCGCGAUAGCGCCAACGUUCUCAACUAUGACACGCAAAACGCGUGCUCCGUUGAAUGCACUUUAUCAUG [U45A A73C G141C G143C], the “polymerase ribozyme fitness (log ratio)” value was at most -4.2.

GGAUCUUCUCGAUCUAACAAAAAAGACAAAUCUGCCACAAAGCUAGCGAGCAUCUACGGAUGCAGAGGCGGCAGCCUUCGGUGGCGCGAUAGCGCCAACGUUCUCAACUAUGACUCGCAAAACGCGUGCUCCGUUGAAUCGAGUUUAUCAUG [U45A A47C U56A A115U G140C]: the “polymerase ribozyme fitness (log ratio)” value is at most -4.2.

Consider GGAUCUUCUCGAUCUAACAAAAAAGACAAAUCUGCCACAAAGCUAGCAAGCAUCUUCGGAUGCAGAGGCGGCAGCCUUCGGUGCCGCGAUAGCGCCAGCGUUCUCAGCUAUGACAAGCAAAACGCGUGCUCCUUUGAAUGGCGUUUAUCAUG [U45A A47C G48A G84C A98G A107G C116A G133U A142C], for which the “polymerase ribozyme fitness (log ratio)” value was at most -4.2.

As to GGAUCUUCUCGAUCUAACAAAAAAGACAAAUCUGCCACAAAGCUAGGGAACAUCUUCGGAUGCGGAGGCGGCAGCCUUCGGUGGCGCGAUAGCGCCAACGUUCUCAACUAUGACACGCAAAACGCGUGCUCCGUUUAAUGGAGUUUAUCAUG [U45A A47G G50A A64G G136U], the “polymerase ribozyme fitness (log ratio)” value is at most -4.2.

For the variant GGAUCUUCUCGAUCUAACAAAAAAGACAAAUCUGCCACAAAGCUAGAGAGCGUCUUCGGAUGCAGCGGCGGCAGCCUUCGGUGGGGCGAUAGCGCCAACGUUCUCAACUAUGACACGCAAAACGCGUGCUCAGUUGAAUGGAGUUUAUCAUG [U45A A52G A66C C85G C132A], the “polymerase ribozyme fitness (log ratio)” value was at most -4.2.

In the case of GGAUCUUCUCGAUCUAACAAAAAAGACAAAUCUGCCACAAAGCUAGAGAGCAUCUUCGGAUGCAGAGGCGGCAGCCUUCGGUGGCGCGAUAGUGCCAACGUUCUCAACUAUGACACGCAAAACGCGUGCUCCGUUGAAUGGAGUUUAUCAUG [U45A C93U], the “polymerase ribozyme fitness (log ratio)” value is -3.15.

With GGAUCUUCUCGAUCUAACAAAAAAGACAAAUCUGCCACAAAGCGUGAGAGCAUCAUCGGAUGCAGACGCGGCAGCCUUGGGUGGCGCGAUAGCGCCAAAGUUCUCAACUAUGUCACGCAAUACGCGUGCUCCGUUGAAUGGAGUUUAUCAUG [U44G U55A G67C C79G C99A A113U A121U], the “polymerase ribozyme fitness (log ratio)” value is at most -4.2.

For GGAUCUUCUCGAUCUAACAAAAAAGACAAAUCUGCCACAAAGCUAGAGAGCAUCUUCGGAUGCAGAGGCGGCAGUCAUCGGUGGCGCGAUAGCAUCUACGUUCUCAACUAUGACACGCAAAACGCGUGCUCCGUUGAAUGGAGUUAAUCAUU [U45A C75U U77A G94A C95U A97U U146A G152U], the “polymerase ribozyme fitness (log ratio)” value is at most -4.2.
